According to the supplement of paper PMC10320760:
This is a noisy data set.

B1: Ydj1; a variant is named by its letters at X, in order (parent)
chain: MVKETKFYDILGVPVTATDVEIKKAYRKCALKYHPDKNPSEEAAEKFKEASAAYEILSDPEKRDIYDQFGEDGLSGAGGAGGFPGGGFGFGDDIFSQFFGAGGAQRPRGPQRGKDIKHEISASLEELYKGRTAKLALNKQILCKECEGRGGKKGAVKKCTSCNGQGIKFVTRQMGPMIQRFQTECDVCHGTGDIIDPKDRCKSCNGKKVENERKILEVHVEPGMKDGQRIVFKGEADQAPDVIPGDVVFIVSERPHKSFKRDGDDLVYEAEIDLLTAIAGGEFALEHVSGDWLKVGIVPGEVIAPGMRKVIEGKGMPIPKYGGYGNLIIKFTIKFPENHFTSEENLKKLEEILPPRIVPAIPKKATVDECVLADFDPAKYNRTRASRGGANYDSDEEEQGGEGVQCXXX

Variants of: B1
Assay: enrichment factor, frequency at 37 °C / frequency at 25 °C (thermotolerance selection) (ratio); higher = more growth at 37 °C, higher likelihood of farnesylation
Conditions: with Saccharomyces cerevisiae ydj1Δ (yWS304); selective temperature 37 °C; reference temperature 25 °C
Method: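 Pooled library of all 8,000 Ydj1-CXXX C-terminal motif variants (native CASQ replaced by C + three variable residues, one codon per amino acid) expressed from a CEN plasmid in S. cerevisiae ydj1Δ (yWS304). The library was grown in SC-Ura liquid to A600 ~2 (~8 generations) at permissive 25 °C or selective 37 °C. Reads from 8 and 7 replicates were pooled and variants counted by NGS. Enrichment factor = frequency at 37 °C / frequency at 25 °C, with a +1 correction; it reports Ydj1-dependent thermotolerance, used as a read-out of farnesylation by yeast FTase.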

Row | Variant | enrichment factor
1 | VDC | 1.15
2 | WDC | 0.7
3 | YDC | 0.218
4 | DDC | 0.121
5 | EDD | 0.186
6 | FDD | 0.199
7 | GDD | 0.164
8 | HDD | 0.0997
9 | IDD | 0.129
10 | KDD | 0.122
11 | LDD | 0.156
12 | MDD | 0.182
13 | ADD | 0.229
14 | CDD | 0.201
15 | NDD | 0.123
16 | PDD | 0.179
17 | QDD | 0.102
18 | RDD | 0.163
19 | SDD | 0.199
20 | TDD | 0.199
21 | VDD | 0.246
22 | WDD | 0.25
23 | YDD | 0.178
24 | DDD | 0.164

Row | Variant | enrichment factor
25 | EDE | 0.129
26 | FDE | 0.173
27 | GDE | 0.115
28 | HDE | 0.171
29 | IDE | 0.161
30 | KDE | 0.152
31 | LDE | 0.127
32 | MDE | 0.165
33 | NDE | 0.165
34 | CDE | 0.207
35 | ADE | 0.185
36 | PDE | 0.24
37 | QDE | 0.111
38 | RDE | 0.0987
39 | SDE | 0.132
40 | TDE | 0.127
41 | VDE | 0.0846
42 | WDE | 0.282
43 | YDE | 0.197
44 | DDE | 0.0864
45 | EDF | 0.207
46 | FDF | 0.645
47 | GDF | 0.165
48 | HDF | 0.207

Row | Variant | enrichment factor
49 | IDF | 0.164
50 | KDF | 0.149
51 | LDF | 0.0991
52 | MDF | 0.336
53 | NDF | 0.182
54 | CDF | 0.306
55 | ADF | 0.247
56 | PDF | 0.324
57 | QDF | 0.136
58 | RDF | 0.173
59 | SDF | 0.211
60 | TDF | 0.119
61 | VDF | 1.03
62 | WDF | 1.98
63 | YDF | 0.303
64 | DDF | 0.247
65 | EDG | 0.1
66 | FDG | 0.434
67 | GDG | 0.0837
68 | HDG | 0.172
69 | IDG | 0.146
70 | KDG | 0.224
71 | LDG | 0.129
72 | MDG | 0.192

Row | Variant | enrichment factor
73 | NDG | 0.079
74 | CDG | 0.156
75 | ADG | 0.117
76 | PDG | 0.201
77 | QDG | 0.139
78 | RDG | 0.265
79 | SDG | 0.165
80 | TDG | 0.0884
81 | VDG | 0.248
82 | WDG | 1.48
83 | YDG | 0.282
84 | DDG | 0.224
85 | EDH | 0.19
86 | FDH | 0.281
87 | GDH | 0.17
88 | HDH | 0.629
89 | IDH | 1.07
90 | KDH | 0.725
91 | LDH | 0.876
92 | MDH | 0.439
93 | NDH | 0.369
94 | CDH | 1.93
95 | ADH | 1.43
96 | PDH | 0.37

Row | Variant | enrichment factor
97 | QDH | 0.387
98 | RDH | 1.33
99 | SDH | 0.262
100 | TDH | 0.787
101 | VDH | 2.15
102 | WDH | 0.743
103 | YDH | 0.198
104 | DDH | 0.133
105 | EDI | 0.145
106 | FDI | 0.521
107 | GDI | 0.111
108 | HDI | 0.216
109 | IDI | 0.169
110 | KDI | 0.162
111 | LDI | 0.15
112 | MDI | 0.141
113 | NDI | 0.243
114 | CDI | 0.504
115 | PDI | 0.173
116 | ADI | 0.231
117 | QDI | 0.115
118 | RDI | 0.137
119 | SDI | 0.125
120 | TDI | 0.189

Row | Variant | enrichment factor
121 | VDI | 0.223
122 | WDI | 0.963
123 | YDI | 0.13
124 | DDI | 0.209
125 | EDK | 0.108
126 | FDK | 0.0876
127 | GDK | 0.155
128 | HDK | 0.105
129 | IDK | 0.196
130 | KDK | 0.1
131 | LDK | 0.165
132 | MDK | 0.161
133 | NDK | 0.226
134 | CDK | 0.182
135 | PDK | 0.292
136 | ADK | 0.205
137 | QDK | 0.161
138 | RDK | 0.135
139 | SDK | 0.124
140 | TDK | 0.0897
141 | VDK | 0.196
142 | WDK | 0.33
143 | YDK | 0.151
144 | DDK | 0.271

Row | Variant | enrichment factor
145 | EDL | 0.171
146 | FDL | 0.224
147 | GDL | 0.0939
148 | HDL | 0.196
149 | IDL | 0.107
150 | KDL | 0.157
151 | LDL | 0.157
152 | MDL | 0.172
153 | NDL | 0.107
154 | CDL | 0.216
155 | PDL | 0.118
156 | ADL | 0.249
157 | QDL | 0.115
158 | RDL | 0.194
159 | SDL | 0.128
160 | TDL | 0.172
161 | VDL | 0.185
162 | WDL | 1.64
163 | YDL | 0.218
164 | DDL | 0.14
165 | EDM | 0.346
166 | FDM | 0.349
167 | GDM | 0.145
168 | HDM | 1.06

Row | Variant | enrichment factor
169 | IDM | 1.4
170 | KDM | 0.745
171 | LDM | 1.09
172 | MDM | 0.455
173 | NDM | 0.46
174 | CDM | 1.55
175 | PDM | 0.71
176 | ADM | 1.54
177 | QDM | 0.907
178 | RDM | 1.19
179 | SDM | 0.648
180 | TDM | 1.14
181 | VDM | 1.83
182 | WDM | 1.98
183 | YDM | 0.281
184 | DDM | 0.18
185 | EDN | 0.138
186 | FDN | 0.248
187 | GDN | 0.182
188 | HDN | 0.0806
189 | IDN | 0.161
190 | KDN | 0.148
191 | LDN | 0.186
192 | MDN | 0.192

Row | Variant | enrichment factor
193 | NDN | 0.146
194 | CDN | 0.26
195 | PDN | 0.151
196 | QDN | 0.159
197 | ADN | 0.193
198 | RDN | 0.13
199 | SDN | 0.222
200 | TDN | 0.168
201 | VDN | 0.28
202 | WDN | 0.832
203 | YDN | 0.0922
204 | DDN | 0.112
205 | EDP | 0.165
206 | FDP | 0.267
207 | GDP | 0.0979
208 | HDP | 0.164
209 | IDP | 0.155
210 | KDP | 0.114
211 | LDP | 0.146
212 | MDP | 0.182
213 | NDP | 0.131
214 | CDP | 0.174
215 | PDP | 0.0952
216 | QDP | 0.162

Row | Variant | enrichment factor
217 | ADP | 0.153
218 | RDP | 0.243
219 | SDP | 0.132
220 | TDP | 0.168
221 | VDP | 0.197
222 | WDP | 0.513
223 | YDP | 0.113
224 | DDP | 0.173
225 | EDQ | 0.397
226 | FDQ | 0.418
227 | GDQ | 0.179
228 | HDQ | 1.12
229 | IDQ | 1.28
230 | KDQ | 0.492
231 | LDQ | 1.23
232 | MDQ | 0.891
233 | NDQ | 0.457
234 | CDQ | 1.77
235 | PDQ | 0.902
236 | QDQ | 1.04
237 | ADQ | 1.6
238 | RDQ | 1.14
239 | SDQ | 1.02
240 | TDQ | 1.61

Row | Variant | enrichment factor
241 | VDQ | 1.83
242 | WDQ | 1.39
243 | YDQ | 0.269
244 | DDQ | 0.132
245 | EDR | 0.162
246 | FDR | 0.118
247 | GDR | 0.16
248 | HDR | 0.0727
249 | IDR | 0.144
250 | KDR | 0.229
251 | LDR | 0.111
252 | MDR | 0.119
253 | NDR | 0.386
254 | CDR | 0.112
255 | PDR | 0.122
256 | QDR | 0.151
257 | ADR | 0.103
258 | RDR | 0.147
259 | SDR | 0.159
260 | TDR | 0.152
261 | VDR | 0.179
262 | WDR | 0.504
263 | YDR | 0.156
264 | DDR | 0.138

Row | Variant | enrichment factor
265 | EDS | 0.285
266 | FDS | 0.193
267 | GDS | 0.192
268 | HDS | 0.116
269 | IDS | 0.532
270 | KDS | 0.135
271 | LDS | 0.38
272 | MDS | 0.151
273 | NDS | 0.203
274 | CDS | 0.223
275 | PDS | 0.182
276 | QDS | 0.262
277 | RDS | 0.396
278 | ADS | 0.29
279 | SDS | 0.186
280 | TDS | 0.226
281 | VDS | 0.759
282 | WDS | 1.31
283 | YDS | 0.298
284 | DDS | 0.164
285 | EDT | 0.137
286 | FDT | 0.359
287 | GDT | 0.197
288 | HDT | 0.146

Row | Variant | enrichment factor
289 | IDT | 0.213
290 | KDT | 0.162
291 | LDT | 0.153
292 | MDT | 0.198
293 | NDT | 0.307
294 | CDT | 0.273
295 | PDT | 0.192
296 | QDT | 0.15
297 | RDT | 0.22
298 | ADT | 0.184
299 | SDT | 0.183
300 | TDT | 0.0973
301 | VDT | 0.515
302 | WDT | 1.22
303 | YDT | 0.158
304 | DDT | 0.141
305 | EDV | 0.18
306 | FDV | 0.329
307 | GDV | 0.142
308 | HDV | 0.141
309 | IDV | 0.183
310 | KDV | 0.0784
311 | LDV | 0.216
312 | MDV | 0.143

Row | Variant | enrichment factor
313 | NDV | 0.17
314 | CDV | 0.385
315 | PDV | 0.161
316 | QDV | 0.178
317 | RDV | 0.215
318 | ADV | 0.135
319 | SDV | 0.193
320 | TDV | 0.211
321 | VDV | 0.602
322 | WDV | 0.929
323 | YDV | 0.226
324 | DDV | 0.0922
325 | EDW | 0.253
326 | FDW | 0.263
327 | GDW | 0.102
328 | HDW | 0.157
329 | IDW | 0.151
330 | KDW | 0.164
331 | LDW | 0.196
332 | MDW | 0.12
333 | NDW | 0.228
334 | CDW | 0.171
